Data published in the supplement of paper PMC3334620.
Over roughly 33,000 sequences, “E-score (-0.5 to 0.5)” has its median near -0.035; the highest 2% begin near 0.35. The list shows a part of the results.

Target: T1, Pdr3 (UniProt P33200)
T1 sequence: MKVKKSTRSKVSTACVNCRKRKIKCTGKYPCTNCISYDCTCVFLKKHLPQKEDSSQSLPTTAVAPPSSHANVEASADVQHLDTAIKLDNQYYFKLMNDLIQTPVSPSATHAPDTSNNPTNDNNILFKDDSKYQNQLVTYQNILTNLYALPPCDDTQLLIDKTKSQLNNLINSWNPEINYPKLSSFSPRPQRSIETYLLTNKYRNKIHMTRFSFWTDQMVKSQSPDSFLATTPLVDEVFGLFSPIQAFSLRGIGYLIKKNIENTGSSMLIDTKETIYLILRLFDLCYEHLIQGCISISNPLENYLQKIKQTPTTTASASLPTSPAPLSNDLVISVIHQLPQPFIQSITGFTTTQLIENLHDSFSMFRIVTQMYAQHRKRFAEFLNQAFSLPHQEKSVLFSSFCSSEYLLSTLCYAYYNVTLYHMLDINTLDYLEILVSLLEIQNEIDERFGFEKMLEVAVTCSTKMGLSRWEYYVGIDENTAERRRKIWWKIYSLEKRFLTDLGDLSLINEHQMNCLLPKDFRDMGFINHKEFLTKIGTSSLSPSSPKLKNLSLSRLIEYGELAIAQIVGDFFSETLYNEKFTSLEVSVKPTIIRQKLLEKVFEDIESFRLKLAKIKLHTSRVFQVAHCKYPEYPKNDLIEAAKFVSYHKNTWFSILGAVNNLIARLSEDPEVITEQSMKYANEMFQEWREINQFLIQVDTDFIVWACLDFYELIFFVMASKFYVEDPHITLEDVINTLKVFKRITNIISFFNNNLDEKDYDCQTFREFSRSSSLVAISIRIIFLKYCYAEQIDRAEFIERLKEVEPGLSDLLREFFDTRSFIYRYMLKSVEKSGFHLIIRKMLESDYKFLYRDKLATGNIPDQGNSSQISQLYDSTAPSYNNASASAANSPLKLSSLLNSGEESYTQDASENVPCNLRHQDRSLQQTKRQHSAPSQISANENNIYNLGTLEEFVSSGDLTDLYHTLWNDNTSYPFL
Experiment: PBM E-score (8-mer binding enrichment) (E-score (-0.5 to 0.5)); higher = stronger / more preferred TF binding; most listed sequences are background and not binding sites
Conditions: protein concentration: 200 nM; construct: GST-full length
Summary of the method: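 GST-tagged yeast TFs (full-length or DNA-binding domain) were made by PURExpress in vitro transcription/translation and applied at about 100-200 nM to universal all-10-mer Agilent arrays. The arrays were made double-stranded by primer extension, on fresh or once-stripped slides. Bound protein was detected with fluorescent anti-GST, and scans were normalised with masliner. Each ungapped eight-base word, pooled with its reverse complement, received an E-score (modified Wilcoxon-Mann-Whitney statistic) from the Universal PBM Analysis Suite.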

Sequence	PBM E-score
CCTAATGC	-0.312
ACGGAGCC	0.305
AGGCGTAC	-0.182
ACTGACTG	-0.0706
TAATACTA	0.00766
AATTTTTC	0.148
CGCACTCC	0.0021
ACCCGAAT	0.249
CTGATAAC	-0.125
ATCTAAAA	-0.032
CGTAAGGC	-0.231
GAACCGCC	0.19
TCCCCGGA	0.411
CTAGTTTC	0.153
CGTTCGCC	0.0459
CAGGGGAA	-0.00991
ATCCGCAC	0.333
CACAATCA	0.0165
GGATACAC	0.182
AGACGCAT	0.00451
CCATAAAG	-0.164
ATCTTGCC	0.0916
ACTTGTAG	-0.226
GACTTAGC	-0.195
ACCTCGGC	0.307

Sequence	PBM E-score
ACAGTGCC	0.115
TCCTCGAA	-0.0662
GAAAATTC	0.107
CATTGGTA	0.0535
ATGTCCTC	-0.0318
CGCCTATC	-0.0409
GCTCTTGA	-0.0768
ATCGCCAA	-0.207
ACCATGCG	0.0439
GGGTCGCA	0.0855
AATAAAGT	0.00316
AGAGAATG	-0.141
TCTATCAA	-0.198
GCTATGCC	-0.126
CCCTGCTA	-0.0619
AGTCATGG	-0.234
ACTACCAG	-0.173
CGTGTGGC	-0.155
CTCACACC	-0.125
AAACTCCA	-0.153
ATACAATC	-0.0612
AGTGCAGA	-0.0503
AACAAGTT	0.119
ACTCCTCA	-0.254
AGGTCGTA	-0.175

Sequence	PBM E-score
AAAACCGC	0.0662
AGTACAGC	-0.141
AGATTTGC	0.101
ATCCATTA	-0.0375
CGCATCCG	0.29
AACGCATG	-0.033
ATACATCG	0.0886
ACGACTAG	-0.175
ACGGGGCG	0.183
CACGACGC	-0.0958
CATGGCGC	0.0836
CGCCCGCC	0.239
ACCATTCT	-0.114
CACCCTGA	-0.111
GACAGGAA	0.0827
GATGGCCA	-0.03
ACTCCCAC	-0.107
GTGCGTTA	0.0268
TGATACAA	-0.0803
AACGAGCT	-0.0544
AAACCTTC	-0.0895
AGTGGAAG	-0.185
ATGAACTG	0.126
CCCGACTC	0.154
GATTGTTA	-0.214

Sequence	PBM E-score
CCAGTAGC	0.133
CCTCAGCG	0.121
TAACTACA	-0.123
CAAAACAC	-0.0205
CACCCTCC	0.0843
CGATCCGA	0.326
CTGCGCAA	0.125
CTGTATGA	0.0466
ACGTAGAG	-0.236
ATGCCTAG	-0.137
CAACCTCC	0.112
TAACGCCA	-0.15
TGATTACA	-0.121
AGCTACTG	0.0942
GTCAACGA	-0.18
CGACCTGC	0.0521
CAGTGTGA	-0.0735
CGATGTGC	0.152
AGTATCCA	0.0282
ATCAAGAA	-0.0683
AAGATGAA	-0.0397
ACCCCTAT	-0.0493
CGTTTTCC	0.0681
